# The whole screen tested about 310,000 compounds, of which about 2,200 (0.71%) showed an effect of 50% or more. The effect is printed as a negative number. Some of the results follow.
# Target: human ether-à-go-go-related gene (hERG) potassium channel (human, UniProt Q12809)
# Test: primary screen, population patch clamp on CHO cells stably expressing hERG
# Sequence of human ether-à-go-go-related gene (hERG) potassium channel (Q12809 whole entry, looked up): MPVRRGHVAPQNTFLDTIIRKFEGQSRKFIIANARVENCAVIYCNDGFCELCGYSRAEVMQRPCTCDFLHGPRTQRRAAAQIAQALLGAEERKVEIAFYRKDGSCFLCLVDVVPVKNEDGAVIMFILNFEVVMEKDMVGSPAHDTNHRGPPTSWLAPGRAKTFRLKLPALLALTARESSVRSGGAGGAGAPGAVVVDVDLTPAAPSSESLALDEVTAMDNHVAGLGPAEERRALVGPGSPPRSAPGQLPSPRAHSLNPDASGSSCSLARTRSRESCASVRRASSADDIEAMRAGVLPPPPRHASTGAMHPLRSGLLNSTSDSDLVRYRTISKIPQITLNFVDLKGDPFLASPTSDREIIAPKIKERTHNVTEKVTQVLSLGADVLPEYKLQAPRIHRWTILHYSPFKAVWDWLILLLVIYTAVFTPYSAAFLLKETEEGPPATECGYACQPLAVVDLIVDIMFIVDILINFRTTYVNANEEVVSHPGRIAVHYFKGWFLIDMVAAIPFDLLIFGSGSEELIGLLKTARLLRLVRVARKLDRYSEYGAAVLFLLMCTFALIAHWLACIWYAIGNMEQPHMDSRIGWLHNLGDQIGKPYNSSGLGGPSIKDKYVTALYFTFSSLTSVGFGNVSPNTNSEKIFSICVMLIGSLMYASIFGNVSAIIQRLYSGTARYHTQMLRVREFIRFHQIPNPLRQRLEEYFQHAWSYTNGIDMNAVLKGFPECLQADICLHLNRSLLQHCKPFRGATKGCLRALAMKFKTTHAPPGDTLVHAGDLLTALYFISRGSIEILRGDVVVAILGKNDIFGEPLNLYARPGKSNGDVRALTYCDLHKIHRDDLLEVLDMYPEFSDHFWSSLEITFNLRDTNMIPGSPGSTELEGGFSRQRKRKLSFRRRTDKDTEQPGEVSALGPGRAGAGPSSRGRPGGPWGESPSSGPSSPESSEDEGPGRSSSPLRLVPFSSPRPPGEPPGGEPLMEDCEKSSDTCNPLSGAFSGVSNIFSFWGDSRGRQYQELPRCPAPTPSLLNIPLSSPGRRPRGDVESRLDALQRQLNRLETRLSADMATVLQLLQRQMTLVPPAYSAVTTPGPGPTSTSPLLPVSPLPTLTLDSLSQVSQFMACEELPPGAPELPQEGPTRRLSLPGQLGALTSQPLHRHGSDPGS
row,SMILES,"hERG current change (%, negative = inhibition) at 1uM [%]"
1,O=C(CCSCc1ccc(Cl)cc1)NCCc1ccccc1,8.28
2,COc1ccc(S(=O)(=O)N(C)CC(=O)NCc2ccco2)cc1Cl,9.51
3,Cc1cccc(NC(=O)Nc2cnccn2)c1C,11.2
4,N#Cc1cc(-c2cccc(Cl)c2)c[nH]c1=O,12.3
5,COCCN(C(=O)CCC(=O)Nc1nccs1)C(C(=O)NC(C)(C)C)c1ccc(C)cc1 (centres unmarked),5.75
6,O=c1ccc(Oc2nc(N3CCOCC3)nc(N3CCOCC3)n2)nn1-c1ccccc1,-4.49
7,CCN(C(=O)COC(=O)c1n[nH]c2ccccc12)c1ccccc1,10.8
8,Cc1ccc(C(=O)CSc2nnc(CNc3ccc(C)cc3C)o2)cc1,-8.37
9,O=C(O)c1ccccc1Nc1ccc(OC(F)F)cc1,7.88
10,S=c1[nH]nc(COc2ccccc2)n1/N=C/c1ccc(Br)cc1,13.4
11,CSc1ccc(-c2sc(Nc3ccccc3)n[n+]2-c2ccccc2)cc1.[Cl-],-2.96
12,COc1cccc(C(C)NC(=O)C2CCCC2)c1 (centres unmarked),11.2
13,Cc1cc(C)nc(/N=C(\N)Nc2ccc(-c3ccccc3)cc2)n1,-59.8
14,Cc1ccc(/C=C/C(=O)OCn2nnc3ccccc3c2=O)o1,8.63
15,Cc1ccc(S(=O)(=O)N/N=C\c2cccnc2)cc1,8.86
16,Cc1ccccc1NC1=C(Cl)C(=O)OC1OC(=O)c1ccco1 (centres unmarked),11
17,O=C(COc1ccccc1)NNC(=S)NC(=O)c1ccc(Cl)cc1Cl,10.6
18,Cc1[nH]c(=O)[nH]c(=O)c1S(=O)(=O)N1CCCCC1,16.8
19,COc1cc2nc(C3CCC3)n(NC(=O)COc3ccccc3)c(=O)c2cc1OC,15.4
20,COc1ccc(OC)c(/C=C/C(=O)Nc2ccc3c(c2)CCC3)c1,11.4
21,O=C(COC(=O)c1ncc(Cl)c(Cl)c1Cl)NC(=O)c1ccccc1,15.5
22,COc1ccccc1CNC(=S)NC1CCCCC1,5.92
23,Cc1[nH]c2ccccc2c1C(=O)COC(=O)c1ccc2c(=O)n3c(nc2c1)CCC3,20.9

row,SMILES,"hERG current change (%, negative = inhibition) at 1uM [%]"
1,O=C(c1ccc(F)cc1)[C@@H]1[C@@H](C(=O)c2ccccc2)[C@@]2(C(=O)Nc3ccccc32)[C@H]2c3ccccc3C=CN12,16.5
2,Cc1ccc(N=Cc2c(O)n(-c3ccc4c(c3)OCO4)c(=O)c3ccccc23)cc1,7.06
3,COc1ccc(CCNC(=O)CC(Cc2ccc(C)cc2)C(=O)O)cc1OC (centres unmarked),13.4
4,CN(C)S(=O)(=O)Nc1cccc(NC(=O)CC23CC4CC(CC(C4)C2)C3)c1,7.88
5,COC(=O)c1cc(NC(=O)c2c(-c3c(Cl)cccc3Cl)noc2C)ccc1N1CCOCC1,10.8
6,CC(CCc1ccccc1)NC(=O)C(=O)NCc1ccccc1 (centres unmarked),15.7
7,Cc1ccc2cc(C)c3nnc(SCC(=O)N4CCN(C(=O)c5ccco5)CC4)n3c2c1,3.46
8,Cc1cccc(C(=O)Nc2cccc3c2CCCC3)c1,22.2
9,Cc1nc(SC(C(N)=O)c2ccccc2)c(C#N)c(C)c1C (centres unmarked),14
10,CC(C)(CN)CC(=O)O.Cl,3.54
11,Cc1ccc(S(=O)(=O)N2CCN(C(=O)COc3ccc(Br)cc3)CC2)cc1,-2.11
12,COc1ccc(CCNc2ncnc3c2oc2ccccc23)cc1OC.Cl,7.16
13,COCCN=C1NC(=O)C(CC(=O)Nc2cccc(Cl)c2C)S1 (centres unmarked),4.63
14,Cc1cc(=O)oc2cc(OCC3CC(c4ccc(Cl)cc4)=NO3)ccc12 (centres unmarked),1.47
15,Cn1nc(C(=O)NCCCN2CCCCC2)c2c1-c1ccccc1S(=O)(=O)C2,11.5
16,O=Cc1ccc(OCc2ccc3c(c2)OCO3)cc1,13
17,O=[N+]([O-])c1ccc(NCc2ccccc2)c2nonc12,19.7
18,Cc1csc2nc(SCC(=O)N3CCN(c4ccccc4)CC3)[nH]c(=O)c12,-5.39
19,CCCOC(=O)c1ccc(Oc2c(-c3ccc(OCC)cc3O)n[nH]c2C)cc1,14.4
20,COc1ccccc1CCNC(=O)Cn1c(=O)oc2ccccc21,16.8
21,O=C(NCCc1ccccc1)c1cccc(Br)c1,11.7
22,CCC(CC)c1nnc(NC(=O)CS(=O)(=O)c2ccccc2)s1,17.4
23,O=C(NC1CCc2ccccc21)C12CN(Cc3ccccc3)CC1C(c1cccc([N+](=O)[O-])c1)=NO2 (centres unmarked),15.5

row,SMILES,"hERG current change (%, negative = inhibition) at 1uM [%]"
1,O=C(Nc1ccnn1C1CCN(Cc2cc(Cl)ccc2O)CC1)C1CC1,-30.6
2,COc1ccccc1NC(=O)c1c(C)nc2ccccc2c1C(=O)O,9.61
3,COc1cccc(CC(=O)N2CCCC(CCC(=O)N3CCN(c4ccccn4)CC3)C2)c1 (centres unmarked),-0.0329
4,CCOC(=O)C1CCCN(C(=O)Cc2ccc(Cl)cc2)C1 (centres unmarked),13.8
5,O=C(NCC(=O)N1CCOCC1)OCc1ccccc1,-48.7
6,COc1ccc(CNC(=O)C[C@H]2C(=O)N(Cc3ccc(OC)cc3)C[C@@H]2Cc2ccccc2)cc1,-13.5
7,COC(=O)c1c(NC(=O)CSc2nnc(-c3cccnc3)n2Cc2ccco2)sc(C)c1C,10.4
8,Cc1cc(=O)c2c(O)c(O)ccc2o1,15.6
9,O=C(CC1C(=O)NCCN1CC1CCCCC1)NCCc1ccc(F)cc1 (centres unmarked),-8.83
10,c1ccc(-c2n[nH]c(-c3ccccn3)n2)cc1,8.17
11,Cc1ccc(NC(=O)CCc2nnc3ccc(NCc4ccco4)nn23)cc1,9.62
12,Cc1[nH]nc(N2CCCCC2)c1[N+](=O)[O-],6.81
13,CCOC(=O)C1CN(S(=O)(=O)c2ccc(OC)cc2)c2cc(S(=O)(=O)CC)ccc2O1 (centres unmarked),-0.375
14,NS(=O)(=O)c1ccc(CNC(=O)c2ccccn2)cc1,15.5
15,COc1ccc(CN(C)C(=O)CCN2C(=O)c3ccccc3C2=O)c(OC)c1OC,9.78
16,Cc1ccc(OCc2nc(C#N)c(N3CCN(Cc4ccccc4)CC3)o2)cc1,3.29
17,O=C(COc1ccc(F)cc1)NN1C(=O)CSC1=S,5.55
18,Cc1ccc(/C=N\NC(=O)c2ccc(Cn3cc(Br)c([N+](=O)[O-])n3)o2)o1,7.06
19,CCOC(=O)/C=C/[C@H]1Cc2ccccc2CO1,8.33
20,CCCCSCc1nc2ccccn2c1Br,13.3
21,CCCCc1cc(=O)oc2cc(C)cc(OC(C)C(=O)NCc3ccncc3)c12 (centres unmarked),-7.56
22,O=C(COC(=O)COc1ccccc1)Nc1ccc(S(=O)(=O)N2CCOCC2)cc1,4.87
23,O=S(=O)(Nc1ccccc1N1CCCCC1)c1ccc(F)cc1,4.27

row,SMILES,"hERG current change (%, negative = inhibition) at 1uM [%]"
1,COc1ccccc1-n1cnnc1SCC(=O)c1c[nH]c2ccccc12,18.8
2,COc1ccc(S(=O)(=O)N2CCCN(CC(=O)Nc3ccc(NC(C)=O)cc3)CC2)cc1,15.2
3,O=C(NCCCn1ccnc1)c1noc2c1CCc1ccccc1-2,-25.9
4,CCCOc1ccc(C(C)(O)CN2CCOCC2)cc1 (centres unmarked),14.7
5,COC(=O)c1ccc(CN2CCCC(C(=O)Nc3cccc(-n4cnnn4)c3)C2)cc1 (centres unmarked),1.05
6,Cc1ccc(C(=O)NC2CCS(=O)(=O)C2)cc1S(=O)(=O)N1CCOCC1 (centres unmarked),3.56
7,Cc1ccc2nc(NC(=O)c3cccc(-c4cc5ccccc5oc4=O)c3)sc2c1,21
8,Nc1c(S(=O)(=O)c2cccs2)c2nc3ccccc3nc2n1Cc1ccc2c(c1)OCO2,4.37
9,Cc1ccc2oc(=O)c3cc(C(=O)NCCCN4CCN(C)CC4)sc3c2c1,9.08
10,Cc1ccc(Cn2ccc(NC(=O)c3cc(C)on3)n2)cc1,17.8
11,CCc1nnc(N/N=C/c2ccc(O)c(OC)c2)n1N,19.7
12,O=C(CCN1C(=O)/C(=C/c2ccccc2Cl)SC1=S)NC1=NCCS1,13
13,COc1ccc(C(=O)Nc2ccccc2C(=O)Nc2cccnc2)cc1,7.13
14,COc1ccc(/C=C/c2c([N+](=O)[O-])c(=O)n(C)c(=O)n2C)cc1O,13.2
15,Cc1ccc(CNC(=O)CN2C(=O)CSc3ccc(S(=O)(=O)N4CCC(C)CC4)cc32)cc1,9.13
16,Cc1ccc(C2=NOC(=O)/C2=C\c2ccc(C)o2)cc1,9.81
17,COC(=O)c1cc(/C=C/c2ccccc2)[nH]n1,3.54
18,CN1CCN(c2ccccc2NC(=O)c2cc3c(s2)-c2ccccc2OC3)CC1,0.253
19,COc1ccc(C(CNC(=O)c2ccc(S(=O)(=O)Nc3ccccc3C)cc2)N2CCOCC2)cc1 (centres unmarked),3.04
20,Cc1ccc(NC(=O)C2C3CCCC2C3c2ccccc2)c(C)c1 (centres unmarked),4.75

# From publication PMC4336329 (PLoS ONE, 2015)
